# Biological target: Gli1 (wild-type, full-length) (UniProt P08151)
# UniProt P08151, sequence (P08151 whole entry): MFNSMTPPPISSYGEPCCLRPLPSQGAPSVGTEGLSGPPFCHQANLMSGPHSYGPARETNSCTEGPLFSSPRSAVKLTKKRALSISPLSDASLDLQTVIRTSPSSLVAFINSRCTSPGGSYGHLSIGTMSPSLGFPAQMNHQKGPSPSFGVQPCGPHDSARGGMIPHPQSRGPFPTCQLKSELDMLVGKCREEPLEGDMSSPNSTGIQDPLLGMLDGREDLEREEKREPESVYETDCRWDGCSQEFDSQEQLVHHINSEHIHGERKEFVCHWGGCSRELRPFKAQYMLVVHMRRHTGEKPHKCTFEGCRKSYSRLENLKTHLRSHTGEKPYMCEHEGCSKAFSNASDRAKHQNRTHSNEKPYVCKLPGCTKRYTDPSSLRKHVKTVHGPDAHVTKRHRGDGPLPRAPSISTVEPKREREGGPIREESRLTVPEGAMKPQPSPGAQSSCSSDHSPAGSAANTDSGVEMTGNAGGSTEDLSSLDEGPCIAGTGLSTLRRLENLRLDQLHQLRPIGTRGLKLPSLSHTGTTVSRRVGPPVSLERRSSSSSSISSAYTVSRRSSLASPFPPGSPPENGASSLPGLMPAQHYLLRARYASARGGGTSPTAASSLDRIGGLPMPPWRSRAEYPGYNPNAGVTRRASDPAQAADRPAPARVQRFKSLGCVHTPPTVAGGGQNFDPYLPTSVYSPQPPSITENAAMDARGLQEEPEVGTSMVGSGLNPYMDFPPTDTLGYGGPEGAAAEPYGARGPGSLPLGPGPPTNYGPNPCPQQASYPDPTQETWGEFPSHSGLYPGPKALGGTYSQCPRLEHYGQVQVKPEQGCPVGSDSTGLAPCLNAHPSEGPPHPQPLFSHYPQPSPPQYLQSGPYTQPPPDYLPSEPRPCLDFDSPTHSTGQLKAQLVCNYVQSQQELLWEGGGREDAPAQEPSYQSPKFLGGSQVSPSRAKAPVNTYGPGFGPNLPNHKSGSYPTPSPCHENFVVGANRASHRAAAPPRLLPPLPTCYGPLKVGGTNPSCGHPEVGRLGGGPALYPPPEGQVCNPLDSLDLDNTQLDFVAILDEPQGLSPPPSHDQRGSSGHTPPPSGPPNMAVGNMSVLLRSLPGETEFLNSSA
substance,measurement,value
HA-tagged loss-of-function S6K1T389A (no sequence given),serine/threonine phosphorylation of immunoprecipitated endogenous Gli1 (Western blot),"serine/threonine phosphorylation of Gli1 was observed with the ectopic expression of S6K1 or S6K1T389E (FIG. 3A), but neither S6K1T389A nor S6K1K100R"

# Reference: patent US20150017651
